8 molecules from publication PMC7476737, “Targeting 14-3-3ε-CDC25A interactions to trigger apoptotic cell death in skin cancer” (Oncotarget, 2020) can be followed below.

By UniProt entry, the sequences of proteins in these tests, tags left out.
UniProt P62258: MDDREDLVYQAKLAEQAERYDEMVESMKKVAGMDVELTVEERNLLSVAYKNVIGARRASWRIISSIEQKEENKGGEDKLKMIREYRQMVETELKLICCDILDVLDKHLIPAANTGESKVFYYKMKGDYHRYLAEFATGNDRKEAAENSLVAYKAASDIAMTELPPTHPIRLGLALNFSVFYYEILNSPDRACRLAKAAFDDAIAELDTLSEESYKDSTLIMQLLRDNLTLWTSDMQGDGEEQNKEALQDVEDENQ
UniProt P31946: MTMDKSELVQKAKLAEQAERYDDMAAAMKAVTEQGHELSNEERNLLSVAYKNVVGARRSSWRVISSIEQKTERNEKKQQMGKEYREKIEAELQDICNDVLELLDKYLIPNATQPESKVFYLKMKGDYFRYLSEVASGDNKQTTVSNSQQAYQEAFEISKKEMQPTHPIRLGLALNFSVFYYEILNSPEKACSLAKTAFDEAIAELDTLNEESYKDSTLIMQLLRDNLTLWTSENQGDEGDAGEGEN
UniProt P63104: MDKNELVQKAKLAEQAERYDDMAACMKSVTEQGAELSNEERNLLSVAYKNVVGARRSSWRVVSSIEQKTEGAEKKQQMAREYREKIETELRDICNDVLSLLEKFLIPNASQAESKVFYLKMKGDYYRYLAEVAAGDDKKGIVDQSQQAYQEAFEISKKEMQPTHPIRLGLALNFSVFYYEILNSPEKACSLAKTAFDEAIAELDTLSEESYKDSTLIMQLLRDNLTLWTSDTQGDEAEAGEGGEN

Results are given in words; binding and its absence hold for the method and conditions named. In cells and extracts the contact can be indirect. Some results given as binding are weak or reduced against the parent protein; the word gives no strength.

Assay [1] concerns the target T1, CDC25A (human (endogenous in SCC12B.2 and nHEK)) (UniProt P30304).
T1 sequence: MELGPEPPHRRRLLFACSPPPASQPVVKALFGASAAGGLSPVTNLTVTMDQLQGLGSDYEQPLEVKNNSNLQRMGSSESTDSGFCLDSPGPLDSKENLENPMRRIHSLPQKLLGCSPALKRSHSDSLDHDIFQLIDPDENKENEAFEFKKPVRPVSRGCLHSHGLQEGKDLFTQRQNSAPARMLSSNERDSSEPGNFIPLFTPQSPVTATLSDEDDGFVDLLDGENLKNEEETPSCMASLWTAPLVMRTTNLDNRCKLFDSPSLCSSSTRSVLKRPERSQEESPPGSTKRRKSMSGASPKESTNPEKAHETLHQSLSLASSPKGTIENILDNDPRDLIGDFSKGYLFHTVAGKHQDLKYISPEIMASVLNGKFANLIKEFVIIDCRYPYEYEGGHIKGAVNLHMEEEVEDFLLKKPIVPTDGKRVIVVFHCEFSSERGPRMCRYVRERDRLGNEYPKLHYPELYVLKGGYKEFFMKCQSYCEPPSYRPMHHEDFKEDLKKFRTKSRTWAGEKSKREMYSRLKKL
In words: condition: only in nHEK cells (normal keratinocytes); co-IP; anti-CDC25A antibody on Dynabeads Protein G, 100 mg of nHEK (normal keratinocyte) cell lysate; immunoblot for 14-3-3 family members. In general terms: Immunoblotting shows a protein as a band on a membrane.

Assay [2] deals with T1, CDC25A (human (endogenous in SCC12B.2 and nHEK)). Kind of assay: co-IP; anti-CDC25A antibody on Dynabeads Protein G, 100 mg of SCC12B.2 cell lysate, 4°C 30 min, IP buffer with 100 mM NaCl, 2 mM DTT, 1 mM MgCl2; immunoblot for 14-3-3 family members.
Assay [3] has the same target. Kind of assay: co-IP; anti-CDC25A antibody on Dynabeads Protein G, 100 mg of nHEK (normal keratinocyte) cell lysate; immunoblot for 14-3-3 family members.
Assay [4] has as its target 14-3-3ε (human (endogenous in SCC12B.2 and nHEK)) (UniProt P62258). In words: co-IP; synthetic peptide (pS 30 μM or pT 20 μM) added to living SCC12B.2 cells for 48 h; read-out is the loss of CDC25A from the 14-3-3ε immunoprecipitate; only the binder purified.
The target is the same in assay [5]. Kind of assay: co-IP; anti-14-3-3ε antibody on Dynabeads Protein G; SCC12B.2 cells treated with vehicle (20 mM Tris, pH 7.5), pS (30 μM) or pT (20 μM) for 48 h in Opti-MEM before lysis; immunoblot for CDC25A.
Assay [6] shares this target. Kind of assay: co-IP; anti-14-3-3ε antibody on Dynabeads Protein G, 100 mg of SCC12B.2 cell lysate, 4°C 30 min; immunoblot for CDC25A.

Regarding 14-3-3ε (from UniProt P62258 1-255), the binding entry in assay [1] was “no binding”; in assay [2] it was “binds”. With 14-3-3β (from UniProt P31946 1-246), the binding result in assay [3] and in assay [2] was “no binding” each time.

For the molecule 14-3-3ζ (from UniProt P63104 1-245), the binding result is on record as “no binding” in assay [1] and “binds” in assay [2].

With TQRQNSAPARMLSS (peptide, UniProt P30304 173-186, phosphoserine at 178; N-terminal acetyl; C-terminal amide) [pS peptide (173-186 fragment of human CDC25A with phospho-Ser178)], the binding result in assay [4] was “binds”.

B1: CDC25A (protein, UniProt P30304 1-524)
chain: MELGPEPPHRRRLLFACSPPPASQPVVKALFGASAAGGLSPVTNLTVTMDQLQGLGSDYEQPLEVKNNSNLQRMGSSESTDSGFCLDSPGPLDSKENLENPMRRIHSLPQKLLGCSPALKRSHSDSLDHDIFQLIDPDENKENEAFEFKKPVRPVSRGCLHSHGLQEGKDLFTQRQNSAPARMLSSNERDSSEPGNFIPLFTPQSPVTATLSDEDDGFVDLLDGENLKNEEETPSCMASLWTAPLVMRTTNLDNRCKLFDSPSLCSSSTRSVLKRPERSQEESPPGSTKRRKSMSGASPKESTNPEKAHETLHQSLSLASSPKGTIENILDNDPRDLIGDFSKGYLFHTVAGKHQDLKYISPEIMASVLNGKFANLIKEFVIIDCRYPYEYEGGHIKGAVNLHMEEEVEDFLLKKPIVPTDGKRVIVVFHCEFSSERGPRMCRYVRERDRLGNEYPKLHYPELYVLKGGYKEFFMKCQSYCEPPSYRPMHHEDFKEDLKKFRTKSRTWAGEKSKREMYSRLKKL
For the molecule B1, the binding entry in assay [5] and in assay [6] was “binds” throughout. Turning to FRTKSRTWAGEKSKR (peptide, UniProt P30304 501-515, phosphothreonine at 507; N-terminal acetyl; C-terminal amide) [pT peptide (501-515 fragment of human CDC25A with phospho-Thr507)], the binding entry in assay [4] was “binds”.

B2: 14-3-3θ (protein, UniProt P27348 1-245)
chain: MEKTELIQKAKLAEQAERYDDMATCMKAVTEQGAELSNEERNLLSVAYKNVVGGRRSAWRVISSIEQKTDTSDKKLQLIKDYREKVESELRSICTTVLELLDKYLIANATNPESKVFYLKMKGDYFRYLAEVACGDDRKQTIDNSQGAYQEAFDISKKEMQPTHPIRLGLALNFSVFYYEILNNPELACTLAKTAFDEAIAELDTLNEDSYKDSTLIMQLLRDNLTLWTSDSAGEECDAAEGAEN
B2: the binding entry in assay [3] and in assay [2] was “no binding” throughout.

B3: 14-3-3γ (protein, UniProt P61981 1-247)
chain: MVDREQLVQKARLAEQAERYDDMAAAMKNVTELNEPLSNEERNLLSVAYKNVVGARRSSWRVISSIEQKTSADGNEKKIEMVRAYREKIEKELEAVCQDVLSLLDNYLIKNCSETQYESKVFYLKMKGDYYRYLAEVATGEKRATVVESSEKAYSEAHEISKEHMQPTHPIRLGLALNYSVFYYEIQNAPEQACHLAKTAFDDAIAELDTLNEDSYKDSTLIMQLLRDNLTLWTSDQQDDDGGEGNN
With B3, the figures for the binding entry in assay [1] and in assay [2] were “no binding” and “binds”, respectively.
